This is one part of the list. At the low end of the ranking, values are background and their order means little.

The target of the assay is T1, GST-Rok (full length) (UniProt O34857).
T1 sequence: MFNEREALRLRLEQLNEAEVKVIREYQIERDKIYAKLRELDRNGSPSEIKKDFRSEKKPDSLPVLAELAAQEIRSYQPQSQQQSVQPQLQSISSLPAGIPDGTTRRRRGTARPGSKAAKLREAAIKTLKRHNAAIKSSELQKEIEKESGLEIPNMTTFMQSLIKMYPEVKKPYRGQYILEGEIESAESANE
Description: protein binding microarray.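 Also: rank score from −0.5 (least bound) to 0.5 (best bound).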 The settings on record: Rok is a gene silencer of Bacillus subtilis; high values mean tight binding; most listed sequences are background and not binding sites; double strand, one strand shown.
In turn, CTTCAATC displayed a binding signal of -0.195 E-score.
As for AGCAATGC, the figure is 0.107 E-score; as for ACGGGGGG, -0.314 E-score; as for ATCAACCC, -0.0952 E-score.
As for CAAGACGG, the figure is -0.114 E-score; as for CTAGTACC, 0.202 E-score.
The figure for AGCACGAC is 0.0109 E-score; for AATTACTG it is 0.191 E-score.
Sequence ATTAACCC came in with a binding signal of 0.0787 E-score.
The figure for AATAAAAG is 0.0237 E-score; for TAAAAAGA it is 0.0249 E-score.
As for CATTCGAA, the figure is 0.241 E-score; as for AATAAGTA, 0.249 E-score; as for CCACCAAC, -0.138 E-score.
The figure for CCCGTGCG is -0.367 E-score; for ACCCCCTG it is -0.219 E-score.
For GAGCGCCA, the binding signal is -0.357 E-score.
As for GTCCCGTA, the figure is -0.00974 E-score; as for AGGGGGAG, -0.278 E-score.
The figure for ATGATTCC is -0.107 E-score.
GGCATGAA showed a binding signal of -0.0167 E-score.
The figure for AAAATAGC is 0.179 E-score.
AATTCACG yielded a binding signal of 0.177 E-score.
The figure for CGGAATAC is 0.0622 E-score; for AATAAATT it is 0.295 E-score; for GCTGAACC it is -0.131 E-score.
As for GAGAAAAC, the binding signal was -0.00588 E-score.
The figure for AACCGCAC is -0.0995 E-score.
The figure for ATGCCGGC is -0.302 E-score.
The figure for CCAGACTC is -0.136 E-score.
The sequence GATAAACC registered a binding signal of -0.00338 E-score.
Take CGCCAGTC: the binding signal was -0.237 E-score.
The figure for ATCTGAAG is -0.0856 E-score.
As for CAGTCTAC, the figure is 0.147 E-score; as for CCAGAGCG, -0.277 E-score.
As for GCGAACCA, the figure is -0.268 E-score; as for CAGGCCGA, -0.26 E-score; as for GCAACAGA, -0.00447 E-score.
In the case of GCTGATTA, the binding signal is -0.127 E-score.
As for ACTTGCCT, the figure is 0.0161 E-score.
The figure for GCTAAAGA is -0.0511 E-score; for AGCCATTG it is -0.119 E-score.
As for ATGCAGGC, the figure is 0.0328 E-score; as for CCAATCTA, 0.283 E-score; as for ACCCGGCT, -0.0892 E-score.
In turn, CGCACAAG came in with a binding signal of -0.123 E-score.
As for CCTCCTCC, the figure is -0.368 E-score; as for AAATGACG, -0.0296 E-score.
The figure for AACTTCTC is 0.0759 E-score.
In turn, ATATCTCG gave a binding signal of 0.193 E-score.
As for AATTTACG, the figure is 0.292 E-score; as for CTCTCCAC, -0.204 E-score.
The figure for ACAACTTA is 0.23 E-score; for TGAAACAA it is -0.052 E-score.
In the case of CGAGGATA, the binding signal was -0.0453 E-score.
As for CAGTATGC, the figure is -0.0921 E-score; as for CTGTACTC, -0.00698 E-score.
Sequence TTCCACAA showed a binding signal of -0.0794 E-score.
AAAGCCTT had a binding signal of -0.296 E-score.
Consider AAAATGCC, for which the binding signal worked out at 0.144 E-score.
CCATAAGA registered a binding signal of 0.0104 E-score.
The sequence GATTACGA displayed a binding signal of 0.138 E-score.
As for GACCAGTC, the binding signal is -0.178 E-score.
As for CTTGAGGA, the figure is -0.00408 E-score; as for CTTGTGTC, -0.113 E-score.
The sequence ATCTTATA returned a binding signal of 0.287 E-score.
The figure for AAAAGGCA is 0.0153 E-score; for GAGACAGA it is -0.0774 E-score; for CAGAAAAA it is -0.228 E-score.
The figure for CCTATGGC is -0.262 E-score; for CACTTGGG it is -0.176 E-score; for AGGCGCGG it is -0.322 E-score.
As for AGTCTAGA, the figure is 0.0654 E-score.
As to GCTACCCC, the binding signal was -0.106 E-score.
As for CCGATATC, the figure is -0.0456 E-score.
As for AGATGCAC, the figure is -0.0764 E-score.
As for AGAGCTAC, the figure is -0.0299 E-score.
Consider GTCCCAGA, for which the binding signal is -0.25 E-score.
As to CACTGGCA, the binding signal is -0.307 E-score.
The figure for ATGCACGC is -0.0755 E-score.
As for ATTATCCA, the figure is 0.109 E-score; as for ATGCTGGA, -0.0341 E-score.
Sequence CGCCCATA registered a binding signal of -0.363 E-score.
Sequence CCCGTCAA showed a binding signal of -0.325 E-score.
On to AATATTAA, for which the binding signal was found to be 0.334 E-score.
Consider CAACTCGC, for which the binding signal is -0.00406 E-score.
The figure for GACCCCTC is -0.427 E-score; for AGTGTGCA it is 0.037 E-score.
AAACTCTT showed a binding signal of 0.188 E-score.
In turn, GTAAGCAA came in with a binding signal of 0.0243 E-score.
With TCTGACCA, the binding signal is -0.132 E-score.
The figure for AGCTCTCG is -0.0291 E-score; for CGTAATGA it is 0.0955 E-score; for GCGGCAAC it is -0.197 E-score.
As for TAGTGCCA, the figure is 0.0249 E-score; as for ATGTACTA, 0.321 E-score.
As for GTTCATGA, the figure is 0.101 E-score; as for CGCCTGAC, -0.28 E-score; as for AAAAGTAT, 0.205 E-score.
Consider GTACCTTA, for which the binding signal stood at 0.193 E-score.
As for AGGAAGTA, the figure is 0.0966 E-score.
As for ATTTGAGG, the figure is 0.0564 E-score; as for CTGGCACA, -0.24 E-score; as for AAAAGCGC, -0.0281 E-score.
With AGAGAGCT, the binding signal was -0.0184 E-score.
As for AAAACTAC, the figure is 0.453 E-score.
Consider ACAATCAT, for which the binding signal turned out to be 0.17 E-score.
The figure for ACAGAGCG is -0.144 E-score; for CGAGACTC it is -0.171 E-score; for ACATCAAA it is -0.118 E-score.
As for ATCCATGA, the figure is -0.0395 E-score.
The figure for ACCTCATA is 0.0129 E-score.
The sequence GTGCACAA returned a binding signal of -0.0651 E-score.
As for GCTGTGAA, the figure is 0.0753 E-score; as for AGGCGATC, -0.161 E-score.
As for AGGAGGAG, the figure is -0.394 E-score; as for CTACTGTC, 0.207 E-score; as for ACGATTCT, 0.209 E-score.
As for GGCTACAC, the figure is -0.287 E-score.
On to ACGAAGGC, for which the binding signal was -0.23 E-score.
The figure for TAACTTCA is 0.121 E-score; for ATCTCTGC it is -0.135 E-score; for ATAACGGG it is 0.00871 E-score.
As for CACACGTG, the figure is -0.021 E-score.
The figure for ACTTTCAA is 0.155 E-score; for GGAAACAC it is -0.146 E-score.
In turn, TACGTCAA yielded a binding signal of 0.0487 E-score.
The figure for CAGTTGTA is 0.132 E-score; for GTGAACAA it is 0.052 E-score; for AACTTACA it is 0.18 E-score.
As for GATCTTGC, the figure is 0.197 E-score.
The figure for TGATTGAA is 0.0042 E-score.
For the sequence AGATAGAA, the binding signal amounted to 0.26 E-score.
As for ATCTCGTC, the figure is 0.0825 E-score; as for CGTACTGC, 0.0418 E-score.
The figure for ACTGAAGT is 0.0422 E-score; for CGGTTCAC it is -0.057 E-score; for TCACGACA it is -0.103 E-score.
The figure for CACTCTAC is -0.103 E-score.
Sequence CTCGTACC came in with a binding signal of -0.103 E-score.
The figure for ATGCAGCA is -0.126 E-score; for CACTCGTC it is 0.00924 E-score.
As for TAGTCTGA, the figure is 0.148 E-score; as for CCGTGTAG, -0.0932 E-score; as for ACATCTAT, 0.309 E-score.
Take CAGGCGCC: the binding signal was -0.165 E-score.
Turning to AACAGCAA, the binding signal is 0.0713 E-score.
As for TCGATAGA, the figure is 0.285 E-score; as for CGGTGATA, 0.0653 E-score.
With ATGACCGG, the binding signal is -0.00748 E-score.
The figure for GGAGACCC is -0.332 E-score; for ACCTTGAA it is -0.224 E-score; for CTGATCGC it is -0.0832 E-score.
The figure for GGTACGAC is -0.0975 E-score; for ACGGCCCG it is -0.242 E-score; for ATGGATAG it is -0.028 E-score.
As for TATCAGAA, the figure is 0.119 E-score; as for ATCAATAA, 0.19 E-score; as for AATCTTTA, 0.13 E-score.
ACGCTGGC showed a binding signal of -0.0836 E-score.
The figure for ACGCAATC is 0.0805 E-score; for CACTTGAA it is -0.159 E-score.
The figure for CTCAATAC is 0.0481 E-score; for AACACTCG it is 0.0111 E-score; for GCATCTAC it is 0.0875 E-score.
As for AATCATAG, the figure is 0.185 E-score.
AAGTCGAA returned a binding signal of -0.0505 E-score.
As for ACGAATTA, the figure is 0.289 E-score; as for AAATCCAG, 0.138 E-score; as for CAAAGCAG, -0.0726 E-score.
CCTCCCAC: the binding signal was -0.258 E-score.
As for AATAGTGG, the figure is 0.135 E-score.

Source of the values: publication PMC6212790.
